The values below come from the supplement of paper PMC10126150.

Sequences with one replicate were seen in a single cluster, so their values are uncertain.

This data set relates to ATP. As to the kind of experiment: switch fluorescence ratio, 500 uM ATP over buffer (Cy3 cluster intensity, sum of 5 cycles each) (fold (ratio)); higher = stronger signal-on switching upon ATP binding; sequences stand for … in TCGTCGGCAGCGTCAGATGTGTATAAGAGACAGTTTTTTTTTTTTTTTTTTTTTTTTT…TC. To be noted: aptamer strand: ATP DNA aptamer (quencher-CACCTGGGGGAGTATTGCGGAGGAAGG + anchor), 100 nM annealed; ATP concentration: 500 uM; one replicate. In a few lines:
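Cy3-labelled switching-strand clusters on a modified Illumina MiSeq flow-cell were annealed to 100 nM quencher-labelled ATP aptamer, imaged in selection buffer, then imaged after 15 min with 500 uM ATP at 22 °C. Five buffer/ATP cycles ran, with NaOH stripping and re-annealing between them. The fluorescence ratio is summed target-cycle over summed buffer-cycle Cy3 intensity per cluster, averaged per switch-domain sequence. Clusters outside 100-1000 RFU were excluded.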
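Also: ATP exposure 15 min at 22 °C before imaging.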

With GCCAAAAGAC, the switch fluorescence ratio came to 1.22.
For the sequence GGGGGCAAAC, the switch fluorescence ratio was determined as 1.39.
As for AAAATCCTTA, the switch fluorescence ratio was determined as 1.03.
For the sequence GTAATTTATA, the switch fluorescence ratio was found to be 1.02.
For TCGGGGACAG, the switch fluorescence ratio was found to be 0.989.
On to ATTCCGCCTT, for which the switch fluorescence ratio stood at 1.27.
Turning to GCATGGGGAG, the switch fluorescence ratio turned out to be 1.02.
Turning to TCACCCTCG, the switch fluorescence ratio worked out at 1.06.
The value for ACAGGCCCAC was 1.06; that for GGAGTCCGCA was 1.9; that for AAGAATTGA was 1.
With GCCACTAACT, the switch fluorescence ratio was determined as 1.08.
With GTCTGTAAGT, the switch fluorescence ratio is 1.
TATGTGAACG: the switch fluorescence ratio was found to be 1.01.
The value for TAATTCCTCT was 1.02; that for CCAACGTCAT was 2.4.
Regarding GGTCTCCGCG, the switch fluorescence ratio was 1.34.
As for AGGACGGTTT, the switch fluorescence ratio came to 1.
GTATTGGTCC: the switch fluorescence ratio came to 0.988.
For GCTATTGGCT, the switch fluorescence ratio worked out at 0.97.
In the case of GCCATCGTTT, the switch fluorescence ratio came out at 0.942.
As for GCGCTAGCGT, the switch fluorescence ratio is 0.965.
Consider GGGACAGCGC, for which the switch fluorescence ratio is 1.04.
On to GAAACTGAGG, for which the switch fluorescence ratio is 0.989.
With TTCTGGGTGT, the switch fluorescence ratio worked out at 1.07.
Regarding AGGCGCGA, the switch fluorescence ratio was found to be 1.03.
The figure for TATTTCTTAT is 1; for AATTCCACC it is 1.28; for ATAGGCTTGT it is 1.
For GTTCGATTCT, the switch fluorescence ratio was determined as 0.982.
Take AGATTTGTCT: the switch fluorescence ratio was 0.968.
For CCGGTATTTT, the switch fluorescence ratio came to 1.01.
Consider TCGCGGGTGA, for which the switch fluorescence ratio is 1.
ATCTGGGGA: the switch fluorescence ratio was determined as 1.02.
Turning to GTCCCCGTCG, the switch fluorescence ratio was 0.962.
On to AGTTCACCGG, for which the switch fluorescence ratio amounted to 1.02.
The figure for ACACTCGCAT is 1.52; for GGCTGCAAAC it is 5.19; for AGTATCGGGG it is 1.04.
The value for AAGGTCAAA was 0.965; that for AACCTAGGTT was 1.05; that for TGGCCTGGTG was 1.45.
As for TGGTGAGACA, the switch fluorescence ratio stood at 1.07.
With GGTGACACTG, the switch fluorescence ratio was determined as 0.975.
Take ACCCTTGCGA: the switch fluorescence ratio worked out at 1.29.
The value for CTCTGAATTA was 1.07; that for CAGGTCCATT was 1; that for ACACCAGGCG was 2.55.
As for TATTTATCAT, the switch fluorescence ratio was determined as 0.985.
As to ACCGTTCAAG, the switch fluorescence ratio was found to be 0.978.
With TTTCTGTAGC, the switch fluorescence ratio stood at 1.54.
Consider ATCAGTCATA, for which the switch fluorescence ratio was determined as 0.971.
Consider TTCGTCCTAT, for which the switch fluorescence ratio was found to be 0.978.
For TCACCAGTCT, the switch fluorescence ratio stood at 1.02.
With TGAAACGATT, the switch fluorescence ratio came to 1.01.
Take GGACGAAGCG: the switch fluorescence ratio was found to be 1.06.
Take CTGAATCGGG: the switch fluorescence ratio was 1.02.
With TAAACTTGGA, the switch fluorescence ratio is 1.09.
In the case of TTCTGAATAG, the switch fluorescence ratio was 1.04.
In the case of CCCGGGCCAC, the switch fluorescence ratio worked out at 1.13.
Turning to CGGTGCTACA, the switch fluorescence ratio was 0.992.
The figure for CCACGTACTG is 1.85.
The value for CGTATATTGG was 0.974; that for TTTGGTAGTG was 0.994; that for TTTTCTTGCG was 0.942.
With GCTAGCCCGT, the switch fluorescence ratio is 0.973.
With CGTCATCTTT, the switch fluorescence ratio is 1.1.
